Reference: PubChem BioAssay AID1508624 (National Center for Advancing Translational Sciences (NCATS), 2021)
Screen size: about 48,000 compounds; about 120 (0.25%) were called active. Roughly 4% stayed inconclusive and do not appear here. Calls come from the whole dose curve; as a rule, active = well fitted activation curve with a large enough effect; inconclusive = small, poorly fitted or top-dose-only effect, or another doubt; inactive = no such curve, though single readings can be large or run the other way. The list shows a part of the results.

Assay: Primary qHTS for Identification of Small Molecule Activators of Huntingtin-Antisense Promoter Activity; note: nearly all actives have a fitted effect of over 55% in size
Conditions: HEK293 HTT-AS promoter firefly luciferase reporter (activity 0% = vehicle and -100% = no light), 24 h; series mostly up to 57.5 µM; activity change, positive = activation: at the top concentration
Method in brief: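 HEK293 luciferase promoter-reporter cells (2,500/well) plated 24 h, then compounds added at up to 57.5 uM final for 24 h at 37 °C. Firefly luminescence by Dual-Glo, normalized to vehicle (0%) and zero RLU (-100%).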

Activity change, positive = activation, inactive:
COC(=O)C1CCN(S(=O)(=O)c2cc3c4c(c2)C(C)C(=O)N4CCC3)CC1 (stereo unspecified) -9.94%
CC(=O)N1c2ccccc2CC1C(=O)N1CCN(c2ccc(F)cc2)CC1 (stereo unspecified) -8.11%
COc1ccc(C)cc1NC(=O)c1oc2ccc(S(=O)(=O)N(C)C3CCCCC3)cc2c1C -7.38%
O=C(Nc1ccc(F)cc1F)c1ccc(CN2CC(=O)N3CCCCC3C2=O)cc1 (stereo unspecified) 0%
CC(C)(C)c1cc(C(C)(C)C)c2oc(=O)c(-c3nc4ccccc4[nH]3)cc2c1 -15.6%
O=C(CSc1nc2ccccc2c2nc(-c3ccccc3)nn12)Nc1ccc(Br)cc1 8.7%
Cc1ccc(Cn2c(SCC(=O)NCc3ccc(Cl)cc3)nc3ccsc3c2=O)cc1 -18.2%
CCc1cc(C(=O)Nc2c(C)nn(Cc3ccc(C)cc3)c2C)no1 -20.6%
c1cnc2cc3c(cc2n1)C1CNCC3C1 -16.6%
Cc1ccc2nc(-c3ccsc3)c(Nc3ccccc3C)n2c1 -4.83%
Cc1nc2nncn2c(N2CCN(c3ccccc3)CC2)c1C -29.7%
COc1ccccc1/C=C/c1nc(C#N)c(N2CCCCC2)o1 -2.05%
O=C(NCc1ccc(F)cc1)c1ccc(CSCc2cccc(Cl)c2)o1 -17.6%
CN(C)CCOc1ccc(-c2nc(-c3ccc4c(c3)CCC4=NO)c(-c3ccncc3)[nH]2)cc1 -6.1%
COCCNC(=O)Cc1ccc(NC(=O)N2CCCCc3ccccc32)cc1 2.43%
COc1ccc(-n2c(/C=C/c3ccccc3F)nc3cc(OC)c(OC)cc3c2=O)cc1Cl -35.7%
COCCNC(=O)c1cnn(-c2ccc(C)cc2C)c1C1CCN(C(=O)OC(C)(C)C)CC1 2.63%
Cc1ccccc1Cn1c(C(=O)O)c(CNCc2cccc(F)c2)c2ccccc21 -14.6%
COC(=O)c1scc(-c2ccccc2)c1S(=O)(=O)Nc1ccccc1 -18.9%
CCN(CC)C(=O)C1CCN(S(=O)(=O)c2ccc3c(c2)CCCN3C(C)=O)CC1 -22%
Cc1ccc(-c2cc(C(F)(F)F)n3nc(C(=O)Nc4ccc(Cl)cc4Cl)cc3n2)cc1 -4.45%
Cc1ccc(NC(=O)CSc2ncc3c(n2)-c2ccccc2N(Cc2cccc(F)c2)S3(=O)=O)cc1F -10.2%
Cc1ccc(N2CC(NC(=O)/C=C\c3ccc4c(c3)OCO4)CC2=O)cc1C (stereo unspecified) -16.5%
O=C1c2ccccc2C(=O)C1(c1ccccc1)N1CCN(c2cccc(Cl)c2)CC1 -13.5%
CC(C)c1ccc(S(=O)(=O)c2nnn3c2nc(NCCc2ccccc2)c2sccc23)cc1 -26.8%
Cc1ccc(CNC(=O)c2cc3sccc3n2Cc2ccc(Cl)cc2)cc1 -21.7%
CCCn1c(=O)c2sccc2n2c(CCCC(=O)NCCc3ccc(Cl)cc3)nnc12 -9.57%
CC(CCc1ccccc1)NC(=O)Cn1ncc2c3ccccc3n(Cc3ccc(F)cc3)c2c1=O (stereo unspecified) -2.54%
CC(=O)Nc1ccc(S(=O)(=O)NCC2CCC(C(=O)NCCc3ccccc3)CC2)cc1 (stereo unspecified) 3.49%
Cc1nn(C(=O)c2cccc([N+](=O)[O-])c2C)c(C)c1S(=O)(=O)N1CCOCC1 -6.48%
CCO[C@H](Cc1ccc(OCCc2ccc(OS(C)(=O)=O)cc2)cc1)C(=O)O 1.35%
COCC(=O)Oc1c(Sc2ccc(C)cc2)c(C)nn1C(C)(C)C -2.48%
COc1cc(-c2ccno2)ccc1S(=O)(=O)N1CCN(c2cc(C)ccc2C)CC1 -20.1%
COc1cccc(N2CC(NC(=O)C(c3ccccc3)c3ccccc3)CC2=O)c1 (stereo unspecified) -16.7%
COc1cccc(NC(=O)C2CCCN(S(=O)(=O)c3c(C)[nH]c(=O)[nH]c3=O)C2)c1 (stereo unspecified) -18.5%
O=C(Nc1ccc(Br)c2cccnc12)c1cccc2ccccc12 -8.79%
CCN(c1cc(C)cc(C)c1)S(=O)(=O)c1nnc(NC(=O)C2CCCCC2)s1 -10.7%
Cc1cc(C)cc(NC(=O)CCC(=O)N2Cc3ccccc3Oc3ncccc32)c1 -26.9%
Cc1ccc(CCNC(=O)c2cc3sccc3n2Cc2ccc(C)cc2)cc1 -26.3%
Cc1c(Cl)cccc1-c1ccc(CNc2ccc3[nH]c(=O)[nH]c3c2)o1 -33.8%
Cc1c(Cl)ccc2sc(NC(=O)c3ccc(S(=O)(=O)N4CCCc5ccccc54)cc3)nc12 -16.5%
CCCc1cnc2c(c1SCC(=O)N(C)c1ccccc1)c(=O)n(C)c(=O)n2C -11.1%
CC1CCN(S(=O)(=O)c2ccc3c(c2)oc(=O)n3CC(=O)NCc2ccc(F)cc2)CC1 -88.7%
Cc1cc(C)cc(-n2c(SCC(=O)N3CCCCC3)nc3c([nH]c4ccccc43)c2=O)c1 -10.4%
CCOc1ccc(NC(=O)Cn2c(=O)n(Cc3ccco3)c(=O)c3oc4ccccc4c32)cc1 -15.4%
CC1CN(C(=O)Nc2ccc(C(=O)NCCc3ccccc3)cc2)c2ccccc2S1 (stereo unspecified) -5.52%
CCOc1cc(-c2ccc(OC(=O)c3ccccc3F)cc2)cc(=O)c2c(C)oc(C)c12 -19.3%
CCOc1ccc(C(=O)Nc2cc(-c3nc4ccccc4o3)ccc2C)cc1Cl 0.859%
Cc1cc(C)nc(NS(=O)(=O)c2ccc(NC(=O)COc3ccc(Cl)cc3C)cc2)n1 -24.4%
CCN(Cc1ccccc1)C(=O)c1c(C)oc2ncn(C)c(=O)c12 -8.65%
O=C(CSc1nccn1Cc1ccccc1)NCc1ccc(F)cc1 -5.54%
COc1ccc(-n2nc3ccc(NC(=O)c4ccc(-c5cc(Cl)ccc5Cl)o4)cc3n2)cc1 -15%
Clc1cccc(N2CCN(c3nc4ccccc4n4cnnc34)CC2)c1 -6.66%
COc1ccc(NC(=O)CCc2nnc3n(C)c(=O)c4sccc4n23)cc1 0.655%
COc1ccc(C(=O)NCCn2cc(SCC(=O)Nc3cccc(C)c3)c3ccccc32)cc1 -59.2%
Cc1ccc(C)n1-c1c(C(=O)NCCC(C)C)sc2ncccc12 22%
COCCc1nn2c(=O)cc(COC(=O)c3ccc(OC)c(OC)c3)nc2s1 -14.9%
Cc1oc2ncn(CC(C)C)c(=O)c2c1C(=O)N1CCN(c2cccc(C(F)(F)F)c2)CC1 -18.2%
CCOC(=O)C1CCN(C(=O)Cn2c(=O)cc(C)c3c(C)nn(C)c32)CC1 -32.1%
COc1cc(-c2nc3nc[nH]n3c2Nc2ccc(C(C)C)cc2)ccc1O -22.2%
Cc1cccc(-n2ncc3c(Nc4ccc(Oc5ccc(Cl)cc5)cc4)ncnc32)c1 -1.89%
Cc1cc(C)c(CSc2nnc(C)n3c2cc2occc23)c(C)c1 -12.4%
CCN(Cc1ccccc1)C(=O)c1nc(-c2cccc(F)c2)n2c1CCCCC2 -29.8%
Cc1ccn2c(Nc3ccccc3C)c(-c3ccccn3)nc2c1 -45.9%
COCCCNC(=O)C1CCCN(C(=O)c2cnn(-c3ccc(F)cc3)c2-n2cccc2)C1 (stereo unspecified) 4.07%
Cc1ccc(SCc2nc(-c3ccc(C(=O)NCc4ccc(Cl)cc4)cc3)oc2C)cc1 -8.69%
O=C(NC1CCCCC1)c1cc(Nc2cccc(C(F)(F)F)c2)nc2ccccc12 -6.06%
COc1cc(C(=O)Nc2nc3nc(-c4ccccc4)cc(=O)n3[nH]2)cc(OC)c1OC -8.12%
Cc1ccn2c(=O)cc(CSc3nnc(NC(=O)c4ccccc4Cl)s3)nc2c1 -4.86%
COc1cc(NC(=O)c2noc3c2CSc2ccccc2-3)cc(OC)c1OC -4.89%
COc1ccc(CNC(=O)c2cc3c(=O)[nH]c4ccccc4c3s2)cc1 0.0867%
CCOC(=O)c1ccccc1NC(=O)CCOc1ccccc1 -4.38%
Cc1cccc(N2CCN(C(=O)NCc3noc4ccccc34)CC2)c1C 0.0014%
O=C(NC1CCCCC1)c1cc2c(Cl)nc3ccccc3c2s1 -6.99%
CCOc1ccc(NC(=O)C(NS(=O)(=O)c2cccc3nsnc23)c2ccccc2)cc1 (stereo unspecified) -10.4%
COc1ccccc1CNC(=O)C(=O)NCC(c1ccco1)S(=O)(=O)c1cccs1 (stereo unspecified) -12%
OCCCc1nc2ccccc2n1CCCCOc1ccccc1 -18.3%
Cc1cccc(-c2noc(CN(C(=O)COc3ccc(Br)cc3C)C(C)C)n2)c1 -38.4%
O=C(CCN1CCN(CCO)CC1)N1c2ccccc2Sc2ccc(C(F)(F)F)cc21 -8.24%
CCn1c(=O)n(CC)c2cc(N3CCCCC3)c(NC(=O)Nc3cc(C)cc(C)c3)cc21 -32.8%
CCn1cc(C(=O)N2CCN(c3cc(C)ccc3C)CC2)c(=O)c2cc(S(=O)(=O)N3CCOCC3)ccc21 -12.3%
COc1ccc(Cl)cc1NC(=O)Cn1c(=O)n(Cc2ccco2)c(=O)c2cccnc21 -28.1%
O=c1nc2sc3ccccc3n2c(=O)n1-c1ccc(Cl)c(Cl)c1 9.28%
O=C1NCCc2[nH]c(-c3ccncc3)cc21 -31%
O=C1c2[nH]nc(-c3ccccc3O)c2C(c2ccc(Cl)cc2)N1Cc1ccco1 (stereo unspecified) -24.7%
Cc1ccc(NC(=O)c2cccc(N(C)C)c2)cc1NC(=O)c1ccc(O)cc1 -11.1%
COc1ccccc1NC(=O)Cn1c(=O)n(-c2cccc(C(C)=O)c2)c(=O)c2c3c(sc21)CN(C(C)=O)CC3 -7.41%
CCN1CCN(C(=O)c2cnn(-c3ccc(F)cc3)c2-n2cccc2)CC1 -8.39%
Cc1ccc(C2C=C(c3ccc(Cl)cc3)Nc3nc(NS(=O)(=O)c4ccccc4)nn32)cc1 (stereo unspecified) -16.6%
O=C(CCC1N=C2c3ccccc3N=C(SCC(=O)Nc3ccccc3F)N2C1=O)NCc1ccccc1 (stereo unspecified) -9.24%
Cc1ccc(CNC(=O)CCCCn2c(=O)c3ccccc3n(Cc3c(C)cc(C)cc3C)c2=O)cc1 -8.59%
COc1cccc(NC(=O)CSC2=Nc3ccccc3C3=NC(CC(=O)NCCc4ccccc4)C(=O)N23)c1 (stereo unspecified) -25.6%
CCOC(=O)c1ccccc1NC(=O)Cn1c(=O)n(Cc2nc(-c3ccccc3)no2)c(=O)c2ccccc21 -10.3%
COc1ccccc1N1CCN(C(=O)Cn2ncc3c([nH]c4ccccc43)c2=O)CC1 -8.59%
COc1ccc(OC)c(S(=O)(=O)N2CCC(c3ccncc3)CC2)c1 -30.6%
CCOCCCNC(=O)NC(C)c1c(-n2cccc2)sc2c1CCN(CC)C2 (stereo unspecified) -8.69%
